The supplement of paper PMC3334620
In all, about 33,000 sequences were measured (“E-score (-0.5 to 0.5)”: median about -0.04, highest 2% from about 0.36 on). The list shows a part of the results.

These sequences were tested against T1, Hmlalpha2 (UniProt P0CY09) (assay: PBM E-score (8-mer binding enrichment) (E-score (-0.5 to 0.5)); higher = stronger / more preferred TF binding; most listed sequences are background and not binding sites). Conditions: protein concentration: 200 nM; construct: GST-full length.
T1 sequence: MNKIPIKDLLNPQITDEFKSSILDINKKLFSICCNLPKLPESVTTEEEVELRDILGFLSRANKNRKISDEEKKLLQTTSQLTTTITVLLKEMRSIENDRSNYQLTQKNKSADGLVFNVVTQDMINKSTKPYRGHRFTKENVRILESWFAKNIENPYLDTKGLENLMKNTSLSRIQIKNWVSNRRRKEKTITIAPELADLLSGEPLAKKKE
How it was run: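 The E-score, a modified Wilcoxon-Mann-Whitney statistic, was computed by the Universal PBM Analysis Suite for every ungapped eight-base word pooled with its reverse complement. Scans behind it were normalised with masliner after bound GST-tagged yeast transcription factors were detected with fluorescent anti-GST. The proteins, at about 100-200 nM, had been applied to universal all-10-mer Agilent arrays made double-stranded by primer extension.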

Compared with CGTCACCA, TACGAAAA is higher in “PBM E-score” value: -0.158 for the first, 0.246 for the second.

First: ACTAAAAC
Second: AGCTGTCC
The “PBM E-score” value of the first is higher: 0.176 for the first, -0.273 for the second.

Going from ACGTTTCG to AAACTAAG, the “PBM E-score” value rises from 0.0744 to 0.241.

Going from ACAGATAT to CATCAAAA, the “PBM E-score” value falls from 0.0588 to -0.0667.

First: GAATAGGA
Second: ATCATCAT
The “PBM E-score” value of the first is lower: -0.169 for the first, 0.0376 for the second.

First: GTTCGCCA
Second: GCCCGCAA
The “PBM E-score” value of the first is higher: -0.106 for the first, -0.131 for the second.

Compared with AAAGGACT, ACTCCCGC is higher in “PBM E-score” value: -0.184 for the first, -0.166 for the second.

Compared with ACACGCCA, ATGTAAAC is higher in “PBM E-score” value: 0.311 for the first, 0.483 for the second.

Compared with CGGAGCAA, CGGATCTA is higher in “PBM E-score” value: -0.23 for the first, -0.0271 for the second.

First: CTCTTACA
Second: ATTGGCGC
The “PBM E-score” value of the first is higher: 0.26 for the first, -0.0423 for the second.

Compared with TCATTTCA, CAAATGTC is lower in “PBM E-score” value: 0.0433 for the first, -0.0372 for the second.

Compared with CTGAGAAC, AAAGGGCC is lower in “PBM E-score” value: 0.0249 for the first, -0.14 for the second.

Compared with CTGGGAAG, CACTCGAC is higher in “PBM E-score” value: -0.205 for the first, 0.0639 for the second.

First: GGGGTATA
Second: GGACAAAA
The “PBM E-score” value of the first is lower: -0.293 for the first, 0.0371 for the second.

Compared with CGGCATTC, ACATGGAC is higher in “PBM E-score” value: -0.148 for the first, 0.35 for the second.

First: AGCCCACA
Second: ATGCACCC
The “PBM E-score” value of the first is higher: -0.139 for the first, -0.141 for the second.

First: CTTCTGAA
Second: ATAGGTAG
The “PBM E-score” value of the first is lower: -0.214 for the first, 0.0181 for the second.

Going from AAGTTAAA to ACATGGCG, the “PBM E-score” value rises from 0.265 to 0.324.

First: CCGCGACG
Second: TAATCTCA
The “PBM E-score” value of the first is lower: -0.179 for the first, 0.0124 for the second.

Compared with GCTTGCAA, ACGGGCTA is lower in “PBM E-score” value: 0.172 for the first, -0.103 for the second.

Compared with ACGATAAG, AATTCTAC is higher in “PBM E-score” value: -0.0954 for the first, 0.229 for the second.

Compared with AAAAAGAG, ACTTAAGC is higher in “PBM E-score” value: -0.0989 for the first, 0.044 for the second.

Going from CGGGACGA to GGAATGGA, the “PBM E-score” value rises from -0.214 to -0.181.

Compared with CCAGGGCC, AAGTCCAG is higher in “PBM E-score” value: -0.245 for the first, -0.154 for the second.

First: GCGAATAA
Second: AGACCGAG
The “PBM E-score” value of the first is higher: 0.0894 for the first, 0.0221 for the second.

Going from AGAGAATG to AATAAAGT, the “PBM E-score” value rises from -0.0972 to 0.0726.

Going from TCTATCAA to CCCTGCTA, the “PBM E-score” value falls from -0.0106 to -0.193.

Going from GCTATGCC to ACTACCAG, the “PBM E-score” value rises from -0.12 to -0.0734.

Going from AGTCATGG to CGTGTGGC, the “PBM E-score” value rises from -0.103 to -0.017.

Going from CTCACACC to CATTGGTA, the “PBM E-score” value rises from -0.254 to 0.0384.

Compared with ATGTCCTC, GCTCTTGA is lower in “PBM E-score” value: 0.0149 for the first, -0.211 for the second.

Going from CGCCTATC to ATCGCCAA, the “PBM E-score” value rises from -0.118 to -0.0673.

Compared with GGGTCGCA, ACCATGCG is lower in “PBM E-score” value: 0.0571 for the first, -0.0667 for the second.

Compared with ATCCATTA, AGATTTGC is lower in “PBM E-score” value: 0.0206 for the first, -0.0168 for the second.

Compared with CGCATCCG, ATACATCG is higher in “PBM E-score” value: -0.189 for the first, 0.299 for the second.

Compared with AACGCATG, ACGACTAG is lower in “PBM E-score” value: 0.248 for the first, 0.0412 for the second.

Compared with CGCCCGCC, CATGGCGC is higher in “PBM E-score” value: -0.234 for the first, -0.0216 for the second.

Going from CACGACGC to ACGGGGCG, the “PBM E-score” value falls from 0.161 to -0.141.

Compared with ATACAATC, AAACTCCA is lower in “PBM E-score” value: 0.0682 for the first, 0.0637 for the second.

First: AGTGCAGA
Second: AACAAGTT
The “PBM E-score” value of the first is lower: -0.0862 for the first, 0.178 for the second.

First: AGGTCGTA
Second: ACTCCTCA
The “PBM E-score” value of the first is higher: 0.0742 for the first, -0.205 for the second.

Going from AGTACAGC to AAAACCGC, the “PBM E-score” value falls from 0.00366 to -0.0373.

Compared with AAACCTTC, AACGAGCT is higher in “PBM E-score” value: -0.181 for the first, 0.0829 for the second.

Compared with CCCGACTC, ATGAACTG is higher in “PBM E-score” value: -0.197 for the first, 0.108 for the second.

Going from AGTGGAAG to CCTCAGCG, the “PBM E-score” value rises from -0.265 to -0.255.

Compared with CCAGTAGC, GATTGTTA is higher in “PBM E-score” value: -0.157 for the first, 0.283 for the second.

Going from CACCCTCC to CAAAACAC, the “PBM E-score” value rises from -0.408 to 0.295.

Going from TAACTACA to CTGCGCAA, the “PBM E-score” value falls from 0.378 to -0.172.

Going from CGATCCGA to ACGTAGAG, the “PBM E-score” value rises from -0.256 to 0.224.

First: CTGTATGA
Second: ACCATTCT
The “PBM E-score” value of the first is higher: -0.203 for the first, -0.248 for the second.

First: CACCCTGA
Second: GACAGGAA
The “PBM E-score” value of the first is lower: -0.291 for the first, 0.0161 for the second.

Compared with ACTCCCAC, GATGGCCA is higher in “PBM E-score” value: -0.352 for the first, 0.01 for the second.

First: TGATACAA
Second: GTGCGTTA
The “PBM E-score” value of the first is lower: 0.231 for the first, 0.273 for the second.

First: CGACCTGC
Second: GTCAACGA
The “PBM E-score” value of the first is lower: -0.156 for the first, 0.148 for the second.

Compared with CAGTGTGA, CGATGTGC is lower in “PBM E-score” value: 0.0486 for the first, -0.251 for the second.

First: AGTATCCA
Second: ATCAAGAA
The “PBM E-score” value of the first is lower: -0.0862 for the first, 0.0417 for the second.

First: AAGATGAA
Second: ACCCCTAT
The “PBM E-score” value of the first is higher: -0.0846 for the first, -0.208 for the second.

Compared with ATGCCTAG, CAACCTCC is lower in “PBM E-score” value: -0.0854 for the first, -0.301 for the second.

Going from TAACGCCA to AGCTACTG, the “PBM E-score” value falls from 0.0809 to -0.0833.

Going from TGATTACA to ATTTATGG, the “PBM E-score” value falls from 0.445 to 0.0527.

Going from GGAACAGA to CTGCCTAA, the “PBM E-score” value rises from -0.042 to -0.0285.

Going from CTCAGGTC to CACTTGCC, the “PBM E-score” value falls from -0.17 to -0.254.

Going from CTCAACCC to GCCACCAC, the “PBM E-score” value falls from -0.224 to -0.228.

Compared with CATGACCC, CGTTTTCC is higher in “PBM E-score” value: -0.0675 for the first, 0.063 for the second.

First: TCTTTGCA
Second: AAGCGTGC
The “PBM E-score” value of the first is lower: 0.0746 for the first, 0.124 for the second.

Going from CATGTAGC to CCGCAGAA, the “PBM E-score” value falls from 0.344 to -0.108.

Going from GCATACGA to ATGACCCG, the “PBM E-score” value falls from -0.0763 to -0.174.

First: CTCTAACC
Second: CAGCTCCG
The “PBM E-score” value of the first is lower: -0.198 for the first, -0.0954 for the second.

Going from TAAGCCTA to AACTATAA, the “PBM E-score” value rises from -0.0559 to 0.092.

Compared with CTTCTAAC, CGCGCACG is higher in “PBM E-score” value: -0.0816 for the first, 0.0808 for the second.

Compared with CGCTTTCA, GACATGAA is higher in “PBM E-score” value: 0.0358 for the first, 0.204 for the second.

Going from AATACTCG to CGTCTGTC, the “PBM E-score” value falls from 0.101 to -0.0912.

Going from CTACAAGA to GATGGACC, the “PBM E-score” value falls from 0.178 to -0.149.

Compared with CGACGCAC, GTTCTCAA is lower in “PBM E-score” value: 0.137 for the first, 0.122 for the second.

Compared with AGCCTATG, ACTACAAG is higher in “PBM E-score” value: -0.00509 for the first, 0.267 for the second.

Compared with ACTTCGCG, GGACTTCA is lower in “PBM E-score” value: 0.068 for the first, -0.241 for the second.

Going from CGTAGCAG to ACTTGGCA, the “PBM E-score” value falls from -0.129 to -0.155.

Compared with GAGTGCCC, GGTTCACA is higher in “PBM E-score” value: -0.304 for the first, 0.101 for the second.

First: TAAGTTGA
Second: ACAGTCAC
The “PBM E-score” value of the first is higher: 0.21 for the first, -0.177 for the second.

First: CCCAGAGC
Second: GGCATACA
The “PBM E-score” value of the first is lower: -0.355 for the first, 0.00663 for the second.

Going from CAGGCGTA to ACTTCCCT, the “PBM E-score” value falls from 0.125 to -0.0977.

Compared with ACCAATGG, TAAGCGCA is higher in “PBM E-score” value: -0.187 for the first, 0.0443 for the second.

Compared with CCCCAGAA, CACCCACC is higher in “PBM E-score” value: -0.264 for the first, -0.163 for the second.

Compared with ATCCGCGA, AAGGTATA is higher in “PBM E-score” value: -0.185 for the first, 0.0961 for the second.

First: TATGGCCA
Second: CTTAACTC
The “PBM E-score” value of the first is lower: -0.0769 for the first, 0.104 for the second.

Compared with AGTCGACA, AAGGAGTA is lower in “PBM E-score” value: 0.184 for the first, -0.142 for the second.
